Where “and” joins values, the source holds several entries; their conditions need not be identical. Equal values may be shown once. This is one part of the list. The main result of the screen is listed elsewhere. These columns were measured beside it and carry no call. Most of these compounds were active or inconclusive in the main read-out, so they are no random draw. For part of these data: Potencies come from curve fits of mixed quality, noted in brackets.

The nature of assay [1]: qHTS Assay for Lipid Storage Modulators (AID 1519). The settings on record: Drosophila S3 cells, BODIPY lipid droplet/cell ratio, laser cytometry, cells loaded with oleic acid. In a few lines:
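Cells seeded at 5,000 per well were treated with compounds over a concentration series and loaded with oleic acid (400 uM, as added). Lipid droplet fluorescence (488 nm excitation, 500-530 nm channel) was read by laser-scanning cytometry and normalized to 20 uM Triacsin C.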
(In general: qHTS replaces the single test concentration by a dilution series.)

A short description of assay [2]: qHTS Assay for Modulators of Human Peripheral Myelin Protein 22 (PMP22) Expression/Activity (AID 1967). The conditions noted are these: Cell-based PMP22 reporter, dual-color luciferase ratio. In outline:
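Luminescence ratio of Pmp22 promoter-driven green luciferase to EF-alpha-driven red luciferase, in engineered mouse MSC80 Schwann cells, served as read-out. Compounds were incubated 24h; untreated cells defined 0% Activity; curves were classified by r2, magnitude and activity.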

Assay [3] is described as follows: qHTS Validation Assay to Find Inhibitors of Chronic Active B-Cell Receptor Signaling (AID 485345). The conditions noted are these: ABC-DLBCL cells, chronic BCR signaling reporter; measured here: CBR control luciferase (viability counter). In outline: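 TMD8 ABC-DLBCL cells with dox-inducible green luciferase–IκBα fusion and red native luciferase; compounds 46 uM–3 nM, 4 h at 37C with doxycycline in 0.5% FBS IMDM. Green/red ratio normalized to basal and 10 uM MG-132.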

The nature of assay [4]: qHTS assay for small molecule antagonists of peroxisome proliferator-activated receptor gamma signaling (AID 588537). The conditions noted are these: HEK293 PPARg-UAS-bla, beta-lactamase ratio, antagonist mode; measured here: W460 blue channel. In a few lines:
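We seeded GeneBLAzer HEK293 reporter cells at 3000 per well, allowed 6-6.5 h attachment at 37 C, then co-treated with test compound titrations and 50 nM rosiglitazone overnight (16 h). Inhibition was quantified from 460/530 nm emission ratios.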

Assay [5] can be described thus: qHTS assay for small molecule agonists of retinoid X receptor alpha signaling (AID 588544). The conditions noted are these: HEK293T RXRa-UAS-bla, beta-lactamase reporter, 18 h; 530 nm emission.
Assay [6] in a line: qHTS Assay for Inhibitors of PDE-IV (AID 607).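 Further: parental cells stimulated with forskolin 10 µM plus RO 20-1724 100 µM.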 The conditions noted are these: HEK293 ACTOne CNG channel cells, membrane potential fluorescence; measured here: parental cell counter-screen. In outline: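 HEK293 ACTOne cells with CNG channel (1000/well), endogenous PDE4; membrane potential dye, compounds up to 22.9 uM final. Fluorescence Ex 535/Em 590; RO 20-1724 (100 uM final) as reference.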

Setting [7] is: measured here: cell count channel max response.
The mark [8] stands for this setting: measured here: cell number channel AC50.
[9] abbreviates: measured here: lipid (BODIPY) channel AC50.
Setting [10] is: measured here: lipid channel max response.
The mark [11] stands for this setting: measured here: green reporter channel AC50, mouse Pmp22 promoter in mouse Schwann cells.
Where [12] appears, read: measured here: red reporter channel AC50, EF-alpha promoter control reporter in MSC80 mouse Schwann cells.
Tags describe the fitted curve by direction and shape.

As for `O=C(Nc1ccccc1)c1cc([N+](=O)[O-])ccc1Cl`, the max response in assay [1] (setting [7]) is 90.7% and -73.3%; in assay [1] (setting [10]), 117% and -76.8%; in assay [5], 19%. In addition, the concentration at half-maximal activity (AC50) in assay [1] (setting [8]) is 15.8 µM [rising, partial curve, poor fit] and 31.6 µM [falling, partial curve, poor fit]; in assay [1] (setting [9]), 35.5 µM [falling, partial curve, poor fit]; in assay [2] (setting [11]), 75.7 µM [falling, partial curve]; in assay [2] (setting [12]), 19 µM [falling, full curve]; in assay [3], 3.26 µM [rising, full curve, poor fit]; in assay [4], 28.2 µM [falling, partial curve, poor fit].

As for `COC(=O)[C@H](NC(=O)c1cc(-c2ccccc2)nc2ccccc12)c1ccccc1`, the AC50 in assay [6] is 12.6 µM [rising, partial curve]; in assay [1] (setting [8]), 20 µM [rising, partial curve]; in assay [1] (setting [9]), 20 µM [rising, partial curve]; in assay [2] (setting [11]) it was 84.9 µM [falling, single point]; in assay [2] (setting [12]) it was 84.9 µM [falling, single point]. Also, the max response was 144% and 79.9% in assay [1] (setting [7]); 182% and 87.1% in assay [1] (setting [10]).

`C[C@H](Cc1ccccc1)Nc1ncnc2c1ncn2[C@@H]1O[C@H](CO)[C@H](O)[C@H]1O`: the max response in assay [1] (setting [7]) was found to be 37.1%; in assay [1] (setting [10]), 39.2%. The half-maximal activity concentration (AC50) was 0.00316 µM [rising, full curve, poor fit] in assay [1] (setting [8]); 0.00316 µM [rising, full curve, poor fit] in assay [1] (setting [9]); 6.75 µM [rising, full curve, poor fit] in assay [2] (setting [11]); 6.01 µM [rising, partial curve] in assay [2] (setting [12]).

For `O=C(O)c1ccccc1Nc1cccc(OCc2ccc3ccccc3n2)c1`, the max response in assay [1] (setting [7]) was 27.4% and 39.3%; in assay [1] (setting [10]), 30% and 38.5%. Moreover, the half-maximal activity concentration (AC50) was 3.16 µM [rising, full curve] and 22.4 µM [falling, single point] in assay [1] (setting [8]); 3.16 µM [rising, full curve] and 22.4 µM [falling, single point] in assay [1] (setting [9]); 16.4 µM [falling, single point] in assay [3].

One may read the AC50 as the concentration giving half of the maximal activity seen.

For the origin of these results see PubChem BioAssay (NCATS).
